The source of these data is PubChem BioAssay AID485344 (National Center for Advancing Translational Sciences (NCATS), 2010).

About 6,900 (2%) of roughly 340,000 compounds were called active. Cut-off read from the data, not from the text of the source: active = inhibition above about 30%; inactive = below that, where a call was filed. This is a selection; strong and weak results do not stand in their true shares. Entries without a call were filed so in the source.

Chain of UniProt P14416 (P14416 whole entry, looked up): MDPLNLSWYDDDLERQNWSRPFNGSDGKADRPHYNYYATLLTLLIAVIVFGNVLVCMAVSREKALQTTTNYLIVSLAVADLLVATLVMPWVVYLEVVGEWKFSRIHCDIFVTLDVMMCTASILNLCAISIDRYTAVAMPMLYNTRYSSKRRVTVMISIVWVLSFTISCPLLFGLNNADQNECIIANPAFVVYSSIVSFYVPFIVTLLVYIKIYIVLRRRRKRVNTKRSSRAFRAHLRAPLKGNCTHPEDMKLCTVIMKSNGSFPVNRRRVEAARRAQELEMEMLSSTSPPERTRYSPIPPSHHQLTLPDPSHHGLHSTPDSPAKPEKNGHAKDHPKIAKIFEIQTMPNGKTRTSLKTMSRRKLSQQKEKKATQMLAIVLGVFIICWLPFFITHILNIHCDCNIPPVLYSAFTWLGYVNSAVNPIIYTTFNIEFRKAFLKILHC

The target of the test is D(2) dopamine receptor (Homo sapiens) (UniProt P14416). Nature of the test: HTS Assay for Allosteric Antagonists of the Human D2 Dopamine Receptor: Primary Screen for Antagonists. Note: 0% is about no effect. The conditions noted are these: HEK293 TREx D2 cells, calcium flux, dopamine EC80; at 10 µM; stronger effect = higher value. The essentials:
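Compounds are added to dye-loaded, induced HEK293 T-REx cells coupled to calcium release via D2; after a 3 min kinetic read an EC80 dopamine stimulus is given and fluorescence is recorded for 3 more min.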
Background: Calcium flux is commonly read through the fluorescence of an indicator in the cells.
What is called inhibition is the relative decrease from the control value, in per cent. Consider `COc1ccc(NC(=O)CCCn2nc(C)c3sc4ccccc4c3c2=O)cc1`, for which the inhibition is -10.9%.
On to `COc1ccc(S(=O)(=O)NCCSc2nnnn2-c2ccccc2)cc1`, for which the inhibition was -17.2%.
As to `COc1ccc(CN2CCN(c3ccc(F)cc3)CC2)c(OC)c1OC`, the inhibition was active: 33.3%.
For `CCN(Cc1ccccc1)S(=O)(=O)c1ccc(-c2coc(C)n2)cc1`, the inhibition is -4.89%.
For the compound `COc1ccc(-c2nc(CSCC(=O)N3CCN(c4ccc(F)cc4)CC3)c(C)o2)cc1`, the inhibition was -11.1%.
Next, `O=C(Cn1ncc2c3ccccc3n(Cc3ccc(F)cc3)c2c1=O)NCc1cccs1`: -0.576%; `Fc1ccc(C2=CC(c3ccc(F)cc3)n3c(nc4ccccc43)N2)cc1` (configuration not stated): 0.305%.
Then `Cc1cc(-n2c(C)nc3ccccc3c2=O)ccc1NC(=O)C(F)(F)F`, with -27.4%.
Next, `CC(CNC(=O)c1ccc2nc(Cc3ccccc3)oc2c1)c1ccccc1` (configuration not stated): 12.4%.
For the compound `COc1ccc(S(=O)(=O)N(C)C)cc1NC(=O)c1ccc2c(c1)NC(=O)C(C)S2` (configuration not stated), the inhibition was active: 76.6%.
As for `Cc1cccc(CCN2C(Nc3ccccc3)=NC[C@@H]2CC(C)C)c1`, the inhibition was active: 69.9%.
With `CCn1cc(C(=O)NCc2ccc(Cl)cc2)c(=O)c2cc(S(=O)(=O)N(C)C3CCCCC3)ccc21`, the inhibition was 13.9%.
Next, `CC(C)(C)c1ccc(OCc2nnc(-c3ccccc3)o2)cc1`: 6.27%.
With `COc1ccccc1-c1ccc(SCC(=O)NCCc2ccccc2)nn1`, the inhibition was active: 48.4%.
Then `O=C(CSc1nnc(-c2ccc(F)cc2)o1)N1CCCc2ccccc21`, with 7.34%; and `Cc1ccc(CSc2nnc3[nH]c(=O)cc(-c4ccccc4)n23)cc1`, with 1.85%; and `O=C(CCC1N=C2c3ccccc3N=C(SCc3ccc(Cl)cc3)N2C1=O)N1CCN(c2ccccc2)CC1` (configuration not stated), with 9.92%.
Next, `COc1ccc(C2C=C(c3ccc(Cl)c(Cl)c3)Nc3ncnn32)cc1` (configuration not stated): -18.5%.
Next, `COc1ccc(N2CCN(CCCNC(=O)Nc3ccccc3)CC2)cc1`: -6.14%.
Regarding `COC(=O)c1sccc1S(=O)(=O)N(CC(=O)NCc1ccc(C)cc1)c1ccc(C)cc1`, the inhibition came out at 12.3%.
Then `Fc1ccc(-c2nc(Nc3cccc(C(F)(F)F)c3)nc3c2COc2ccccc2-3)cc1`, with -11.7%; and `COc1ccc(-n2c(SCC(=O)NCc3ccc(C)cc3)nc3n[nH]c(C)c3c2=N)cc1`, with -1.97%.
Next, `COc1ccc(-c2nc3c(c(SCC(=O)N4CCCCC4)n2)Cc2cc(Cl)ccc2O3)cc1`: -0.462%.
Then `CN(C)c1ccc(CNC(=O)Cn2c(=O)oc3cc(S(=O)(=O)N4CCCCCC4)ccc32)cc1`, with -8.07%; and `Cc1ccc(NC(=O)Cc2coc3ccc(C(C)C)cc23)cc1Cl`, with 1.43%; and `CCCCCC(C)NC(=O)c1ccoc1C` (configuration not stated), with active: 40.3%.
For `COc1ccc(-n2c(=O)[nH]c3cc(C(=O)NCCc4ccccc4)ccc3c2=O)cc1OC`, the inhibition worked out at 22.5%.
Next, `CCCS(=O)(=O)c1nc(S(=O)(=O)c2ccc(C)cc2)c(NC)s1`: -1.38%; `Cc1ccc(-n2ncc(C(=O)N3CCCCC3)c2C2CCN(C(=O)OC(C)(C)C)CC2)c(C)c1`: 2.18%; `O=C(COc1ccccc1)Nc1ccc2nc(SCC(=O)N3CCOCC3)sc2c1`: -10%.
Next, `CCOC(=O)c1c(NC(=O)c2ccc(OC)cc2)sc2c1CCCCC2`: -12.3%; `O=C(NCc1ccccc1)Nc1cccn(Cc2ccccc2Cl)c1=O`: active: 33.2%.
Then `COc1ccc(NC(=O)c2oc3ccccc3c2NC(=O)COc2ccc(C(C)C)cc2)c(OC)c1`, with 3.29%.
With `COc1cc(OC)cc(-c2c(-c3cccs3)c3cc(-c4ccc(SC)cc4)ccc3n2C)c1`, the inhibition was active: 57.7%.
Then `O=C(Nc1ccccc1Cl)c1sc2cccc(Cl)c2c1Cl`, with -4.26%.
Next, `Cc1ccc(N(CC(=O)Nc2ccc(Cl)cc2)S(=O)(=O)c2cccc3nonc23)cc1`: -8%; `CCOc1cc(CNC(=O)CN2CCSc3ccccc32)cc(OCC)c1OCC`: 23%.
Next, `COc1cccc(NC(=O)Cn2c(=O)n(Cc3ccccc3)c(=O)c3ccccc32)c1`: 1.07%; `CN1C(C(=O)Nc2ccc(OC(F)(F)F)cc2)=CC(c2cccs2)=NS1(=O)=O`: -7.57%.
For the compound `CCSc1nc2n(n1)C(c1ccc(C(=O)O)cc1)C(C(=O)Nc1ccccc1C)=C(C)N2` (configuration not stated), the inhibition came out at 3.54%.
Next, `CCCSc1nc2c([nH]c3ccccc32)c(=O)n1C`: 16.9%.
Then `O=C(NCc1cccnc1)c1nn(-c2ccc(F)cc2)nc1CO`, with -21.4%; and `CCCCNC(=O)C1CCN(S(=O)(=O)c2c(C)noc2/C=C\c2ccc(OC)cc2)CC1`, with active: 39.6%.
Then `Cc1ccc(Cl)cc1N1CCN(S(=O)(=O)c2ccc3c(c2)CCN3C(=O)C2CCC2)CC1`, with 12.6%; and `COc1ccccc1CNC(=O)CSC1=Nc2ccccc2N=C(c2ccc(F)cc2)C1`, with -14.9%.
Take `CCc1ccc(NS(=O)(=O)c2ccc3[nH]cc(C(=O)NCCCOC(C)C)c(=O)c3c2)cc1`: the inhibition is -7.06%.
Next, `CC(C)c1nc2ccc(C(=O)Nc3ccccc3F)cc2o1`: 5.61%; `Cc1ccc(C)c(N2CCN(CCCNC(=O)Cn3cccc3C(=O)c3ccccc3)CC2)c1`: active: 41%.
Then `Cc1ccc(NC(=O)c2cnn3c2NC(c2ccccc2)=CC3c2ccccc2)cc1` (configuration not stated), with 10.8%; and `CCC(Sc1nnc(C)n2c1cc1occc12)C(=O)Nc1ccccc1OC` (configuration not stated), with 3.3%.
Then `CCN(Cc1ccccc1)C(=O)c1cnn(-c2ccc(F)cc2)c1-n1cccc1`, with -13.4%; and `CC(=O)c1ccc(NC(=O)Cn2nc(N3CCN(c4ccccc4)CC3)ccc2=O)cc1`, with -11.4%.
On to `COc1ccccc1OC(C)C(=O)Nc1cccc(-c2nc3ccccc3o2)c1` (configuration not stated), for which the inhibition was 13%.
Then `Nc1nc(CN2CCN(c3ccccn3)CC2)nc(Nc2ccc(Cl)cc2)n1`, with active: 73.8%.
Then `CC(=O)c1sc(N2C(=O)c3oc4ccccc4c(=O)c3C2c2ccc(C)cc2)nc1C` (configuration not stated), with 8.27%; and `O=C(Cn1c(=O)nc(-c2ccccc2)c2cc(Cl)ccc21)Nc1ccc(F)c(Cl)c1`, with -2.45%; and `COc1cccc(CNC(=O)c2ccc(-n3c(C)cc4c3CCC(C)C4)cc2)c1` (configuration not stated), with -16.3%.
Next, `CCOc1cc(C#N)c(NC(=O)Cn2nnc(-c3ccc(C)cc3)n2)cc1OCC`: 0.917%; `CC(C)NC(=O)c1ccc(NC(=O)N2CCCCc3ccccc32)cc1`: 17.7%.
Regarding `CCCn1c2ccccc2c2cnn(CC(=O)N3CCN(c4ccccc4)CC3)c(=O)c21`, the inhibition was determined as 17.3%.
Take `Cc1cccc(CSc2ncc(Cl)c(C(=O)Nc3nc4ccc(F)cc4s3)n2)c1`: the inhibition was -18.1%.
With `CC(=O)N1c2ccc(S(=O)(=O)N(C)CC(=O)N(C)Cc3ccccc3)cc2CC1C` (configuration not stated), the inhibition is active: 36.2%.
